Test results reported in patent US6855515.

Experiments:
[1] = system: 18 different human non-autoantigens
[2] = biological target: Alanyl tRNA synthetase (PL-12) (UniProt P49588)
CENP B = biological target: T1, CENP B (UniProt P07199)
T1 sequence: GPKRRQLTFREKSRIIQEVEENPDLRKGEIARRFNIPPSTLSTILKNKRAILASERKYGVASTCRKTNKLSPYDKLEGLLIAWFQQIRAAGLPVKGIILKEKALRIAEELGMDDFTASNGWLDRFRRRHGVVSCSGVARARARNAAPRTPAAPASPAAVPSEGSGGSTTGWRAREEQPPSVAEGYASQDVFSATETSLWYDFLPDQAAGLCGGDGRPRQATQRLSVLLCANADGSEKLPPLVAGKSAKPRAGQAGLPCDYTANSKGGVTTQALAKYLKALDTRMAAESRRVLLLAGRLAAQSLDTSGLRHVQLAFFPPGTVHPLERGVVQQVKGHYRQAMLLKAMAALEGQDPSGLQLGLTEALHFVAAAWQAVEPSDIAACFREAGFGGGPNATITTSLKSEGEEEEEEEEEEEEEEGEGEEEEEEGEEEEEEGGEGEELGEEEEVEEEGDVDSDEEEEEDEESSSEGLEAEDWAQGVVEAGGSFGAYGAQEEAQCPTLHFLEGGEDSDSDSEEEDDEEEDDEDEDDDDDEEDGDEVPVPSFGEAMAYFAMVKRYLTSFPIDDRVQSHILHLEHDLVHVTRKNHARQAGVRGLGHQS

[3] = biological target: T2, Histidyl tRNA synthetase (Jo-1) (UniProt P12081)
T2 sequence: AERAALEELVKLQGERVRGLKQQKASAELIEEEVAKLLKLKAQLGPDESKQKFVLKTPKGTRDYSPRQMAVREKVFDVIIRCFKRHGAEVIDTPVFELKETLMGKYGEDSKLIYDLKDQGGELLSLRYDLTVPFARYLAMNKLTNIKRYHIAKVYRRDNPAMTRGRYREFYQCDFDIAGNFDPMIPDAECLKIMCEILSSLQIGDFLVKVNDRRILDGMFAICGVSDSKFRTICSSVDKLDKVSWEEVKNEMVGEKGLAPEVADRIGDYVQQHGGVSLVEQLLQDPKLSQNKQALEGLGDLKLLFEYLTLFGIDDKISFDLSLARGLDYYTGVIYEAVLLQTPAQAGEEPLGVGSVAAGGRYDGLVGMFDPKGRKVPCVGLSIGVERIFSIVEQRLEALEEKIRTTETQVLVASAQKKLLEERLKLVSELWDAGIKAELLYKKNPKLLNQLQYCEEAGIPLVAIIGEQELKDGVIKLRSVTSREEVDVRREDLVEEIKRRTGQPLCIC

[4] = biological target: T3, Isoleucyl tRNA synthetase (O.J.) (UniProt P41252)
T3 sequence: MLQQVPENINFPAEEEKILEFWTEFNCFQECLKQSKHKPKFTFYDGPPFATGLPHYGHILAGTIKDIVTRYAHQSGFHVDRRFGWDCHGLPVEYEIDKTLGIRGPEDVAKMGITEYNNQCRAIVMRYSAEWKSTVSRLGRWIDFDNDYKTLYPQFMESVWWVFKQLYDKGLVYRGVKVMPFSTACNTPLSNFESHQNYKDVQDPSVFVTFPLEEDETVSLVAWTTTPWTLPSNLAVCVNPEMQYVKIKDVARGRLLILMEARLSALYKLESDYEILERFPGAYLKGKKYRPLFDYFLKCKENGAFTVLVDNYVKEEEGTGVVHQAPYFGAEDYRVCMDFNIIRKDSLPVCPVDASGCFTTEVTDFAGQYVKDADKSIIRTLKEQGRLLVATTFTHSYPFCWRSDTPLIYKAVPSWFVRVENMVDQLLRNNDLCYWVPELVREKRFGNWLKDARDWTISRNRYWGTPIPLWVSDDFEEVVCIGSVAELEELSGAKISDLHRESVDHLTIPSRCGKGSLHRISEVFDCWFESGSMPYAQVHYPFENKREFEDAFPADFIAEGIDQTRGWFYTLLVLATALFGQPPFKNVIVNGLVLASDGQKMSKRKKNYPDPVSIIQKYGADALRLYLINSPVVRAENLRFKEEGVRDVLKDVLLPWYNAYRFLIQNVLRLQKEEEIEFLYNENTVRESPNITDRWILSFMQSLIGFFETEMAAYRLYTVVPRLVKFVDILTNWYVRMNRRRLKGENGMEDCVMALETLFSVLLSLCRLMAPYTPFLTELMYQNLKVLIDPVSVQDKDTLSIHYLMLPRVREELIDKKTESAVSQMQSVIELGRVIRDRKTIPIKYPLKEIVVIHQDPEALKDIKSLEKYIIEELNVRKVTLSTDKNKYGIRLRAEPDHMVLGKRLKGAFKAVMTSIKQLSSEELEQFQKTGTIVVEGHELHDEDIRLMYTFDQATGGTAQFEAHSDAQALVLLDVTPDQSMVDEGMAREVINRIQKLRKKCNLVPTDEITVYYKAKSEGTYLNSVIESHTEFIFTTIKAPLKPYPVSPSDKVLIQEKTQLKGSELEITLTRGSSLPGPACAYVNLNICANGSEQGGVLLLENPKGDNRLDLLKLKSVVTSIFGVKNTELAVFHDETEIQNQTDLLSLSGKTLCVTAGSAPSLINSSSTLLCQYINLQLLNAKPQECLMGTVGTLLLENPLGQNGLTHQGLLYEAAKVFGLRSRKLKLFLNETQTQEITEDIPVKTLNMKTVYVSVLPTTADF

Ki-67 = Ki-67 (UniProt P46013)
La = biological target: T4, La (UniProt P05455)
T4 sequence: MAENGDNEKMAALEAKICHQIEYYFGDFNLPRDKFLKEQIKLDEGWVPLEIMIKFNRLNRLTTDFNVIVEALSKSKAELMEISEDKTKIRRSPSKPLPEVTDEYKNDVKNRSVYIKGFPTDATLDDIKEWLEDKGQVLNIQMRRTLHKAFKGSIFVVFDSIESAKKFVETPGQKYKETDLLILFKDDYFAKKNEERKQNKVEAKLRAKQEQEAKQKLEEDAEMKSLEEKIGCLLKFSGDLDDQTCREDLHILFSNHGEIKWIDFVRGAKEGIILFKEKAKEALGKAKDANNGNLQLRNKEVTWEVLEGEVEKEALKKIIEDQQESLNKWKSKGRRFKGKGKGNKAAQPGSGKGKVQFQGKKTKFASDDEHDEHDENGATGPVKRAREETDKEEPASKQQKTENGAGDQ

PMS1 = biological target: T5, PMS1 (UniProt P54277)
T5 sequence: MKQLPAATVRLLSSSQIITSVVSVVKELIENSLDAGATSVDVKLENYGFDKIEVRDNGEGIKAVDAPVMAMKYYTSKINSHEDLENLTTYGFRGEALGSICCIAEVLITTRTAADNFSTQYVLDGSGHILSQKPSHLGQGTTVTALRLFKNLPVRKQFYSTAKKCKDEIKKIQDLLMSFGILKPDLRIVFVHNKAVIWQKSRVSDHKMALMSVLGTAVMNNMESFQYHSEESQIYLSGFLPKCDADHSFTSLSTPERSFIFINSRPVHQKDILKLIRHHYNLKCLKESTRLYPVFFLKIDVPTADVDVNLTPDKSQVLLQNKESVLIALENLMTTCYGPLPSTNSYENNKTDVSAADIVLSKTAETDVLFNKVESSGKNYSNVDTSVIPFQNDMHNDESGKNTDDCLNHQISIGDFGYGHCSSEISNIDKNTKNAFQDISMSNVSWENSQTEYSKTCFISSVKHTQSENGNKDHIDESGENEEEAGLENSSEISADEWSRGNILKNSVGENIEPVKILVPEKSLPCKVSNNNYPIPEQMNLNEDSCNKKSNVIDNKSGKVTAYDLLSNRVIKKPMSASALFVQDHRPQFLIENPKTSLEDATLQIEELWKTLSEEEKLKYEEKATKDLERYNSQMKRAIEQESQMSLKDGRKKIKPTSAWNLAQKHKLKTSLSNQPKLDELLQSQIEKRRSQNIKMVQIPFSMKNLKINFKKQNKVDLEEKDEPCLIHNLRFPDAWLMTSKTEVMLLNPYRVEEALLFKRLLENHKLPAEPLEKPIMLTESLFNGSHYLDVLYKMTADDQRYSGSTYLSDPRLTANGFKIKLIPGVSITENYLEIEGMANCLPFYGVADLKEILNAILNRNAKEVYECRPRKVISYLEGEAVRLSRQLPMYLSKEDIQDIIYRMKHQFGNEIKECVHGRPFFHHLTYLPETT

PMS2 = biological target: T6, PMS2 (UniProt P54278)
T6 sequence: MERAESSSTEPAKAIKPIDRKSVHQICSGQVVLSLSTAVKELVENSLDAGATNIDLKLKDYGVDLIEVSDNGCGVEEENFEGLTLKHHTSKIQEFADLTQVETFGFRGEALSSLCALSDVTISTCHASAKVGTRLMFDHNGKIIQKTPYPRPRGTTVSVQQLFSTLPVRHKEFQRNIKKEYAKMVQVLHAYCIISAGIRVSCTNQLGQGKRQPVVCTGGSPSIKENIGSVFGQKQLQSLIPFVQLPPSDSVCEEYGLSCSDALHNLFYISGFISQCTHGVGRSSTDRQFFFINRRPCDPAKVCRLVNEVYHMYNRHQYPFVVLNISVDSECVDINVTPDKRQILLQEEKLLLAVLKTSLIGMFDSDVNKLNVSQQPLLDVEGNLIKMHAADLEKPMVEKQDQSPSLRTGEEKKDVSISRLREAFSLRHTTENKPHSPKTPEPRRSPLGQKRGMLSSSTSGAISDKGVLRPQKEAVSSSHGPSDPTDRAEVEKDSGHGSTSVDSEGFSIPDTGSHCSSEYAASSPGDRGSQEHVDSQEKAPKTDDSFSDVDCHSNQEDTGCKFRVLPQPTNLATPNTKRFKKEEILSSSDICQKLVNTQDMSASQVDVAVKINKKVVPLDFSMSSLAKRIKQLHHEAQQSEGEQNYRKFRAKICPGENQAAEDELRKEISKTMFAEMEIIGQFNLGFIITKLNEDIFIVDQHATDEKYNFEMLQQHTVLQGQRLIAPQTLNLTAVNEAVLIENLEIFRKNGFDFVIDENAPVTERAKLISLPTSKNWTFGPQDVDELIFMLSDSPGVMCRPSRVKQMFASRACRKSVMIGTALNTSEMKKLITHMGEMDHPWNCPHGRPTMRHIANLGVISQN

[5] = biological target: RNA polymerase I large subunit (UniProt O95602)
Sequence of UniProt O95602 (O95602 whole entry, looked up, tested part not stated): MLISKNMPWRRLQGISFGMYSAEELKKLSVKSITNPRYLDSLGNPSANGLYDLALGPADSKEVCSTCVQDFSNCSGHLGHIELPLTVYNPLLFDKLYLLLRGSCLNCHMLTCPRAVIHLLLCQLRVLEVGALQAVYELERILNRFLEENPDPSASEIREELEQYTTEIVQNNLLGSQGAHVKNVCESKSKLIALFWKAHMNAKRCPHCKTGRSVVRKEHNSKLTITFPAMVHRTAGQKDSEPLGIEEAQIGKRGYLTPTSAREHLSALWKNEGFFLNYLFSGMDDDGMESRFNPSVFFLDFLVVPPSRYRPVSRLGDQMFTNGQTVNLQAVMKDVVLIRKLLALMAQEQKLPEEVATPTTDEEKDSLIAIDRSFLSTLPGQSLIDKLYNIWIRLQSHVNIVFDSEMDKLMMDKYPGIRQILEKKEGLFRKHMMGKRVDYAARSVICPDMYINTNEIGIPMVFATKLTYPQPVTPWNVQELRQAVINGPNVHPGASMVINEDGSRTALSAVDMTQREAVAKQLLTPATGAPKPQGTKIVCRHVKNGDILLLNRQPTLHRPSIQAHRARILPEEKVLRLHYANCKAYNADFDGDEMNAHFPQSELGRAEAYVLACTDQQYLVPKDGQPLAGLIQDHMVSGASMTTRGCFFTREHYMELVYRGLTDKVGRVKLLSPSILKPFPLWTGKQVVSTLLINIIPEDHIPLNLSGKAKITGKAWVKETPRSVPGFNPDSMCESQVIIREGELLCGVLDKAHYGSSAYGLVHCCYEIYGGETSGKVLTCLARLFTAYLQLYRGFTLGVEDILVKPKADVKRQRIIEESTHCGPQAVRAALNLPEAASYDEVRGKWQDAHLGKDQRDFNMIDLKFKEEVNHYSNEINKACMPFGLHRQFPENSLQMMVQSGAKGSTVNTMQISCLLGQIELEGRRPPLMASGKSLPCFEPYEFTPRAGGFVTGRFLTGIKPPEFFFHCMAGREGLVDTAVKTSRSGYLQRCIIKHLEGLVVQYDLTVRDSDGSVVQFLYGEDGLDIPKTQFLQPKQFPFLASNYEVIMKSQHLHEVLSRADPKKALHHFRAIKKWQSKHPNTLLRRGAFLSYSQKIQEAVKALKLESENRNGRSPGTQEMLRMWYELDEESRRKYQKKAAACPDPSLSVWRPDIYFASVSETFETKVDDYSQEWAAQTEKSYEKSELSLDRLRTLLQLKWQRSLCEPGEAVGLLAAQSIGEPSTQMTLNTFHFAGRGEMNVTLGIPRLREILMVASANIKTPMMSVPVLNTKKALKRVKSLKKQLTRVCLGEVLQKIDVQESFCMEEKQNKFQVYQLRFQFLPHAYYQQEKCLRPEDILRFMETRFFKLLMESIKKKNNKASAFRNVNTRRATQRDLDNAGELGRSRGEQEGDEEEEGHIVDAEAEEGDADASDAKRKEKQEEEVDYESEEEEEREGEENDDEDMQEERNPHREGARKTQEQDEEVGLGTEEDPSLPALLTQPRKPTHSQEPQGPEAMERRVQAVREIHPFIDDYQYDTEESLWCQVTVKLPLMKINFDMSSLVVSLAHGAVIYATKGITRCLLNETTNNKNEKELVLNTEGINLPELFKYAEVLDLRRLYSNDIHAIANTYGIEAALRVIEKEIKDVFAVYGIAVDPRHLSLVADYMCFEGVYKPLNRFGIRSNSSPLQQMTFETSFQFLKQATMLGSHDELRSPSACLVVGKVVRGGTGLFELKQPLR

Topoisomerase I = Topoisomerase I (UniProt P11387)
caspase-3 precursor = biological target: T7, caspase-3 precursor (UniProt P42574)
T7 sequence: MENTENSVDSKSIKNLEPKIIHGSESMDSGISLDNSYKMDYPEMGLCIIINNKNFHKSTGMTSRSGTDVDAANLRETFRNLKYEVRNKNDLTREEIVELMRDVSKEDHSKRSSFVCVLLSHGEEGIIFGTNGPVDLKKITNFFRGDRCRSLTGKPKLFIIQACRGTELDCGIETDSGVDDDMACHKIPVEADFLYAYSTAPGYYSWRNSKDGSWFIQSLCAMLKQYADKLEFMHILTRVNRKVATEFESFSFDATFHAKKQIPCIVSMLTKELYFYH

caspase-7 precursor = biological target: T8, caspase-7 precursor (UniProt P55210)
T8 sequence: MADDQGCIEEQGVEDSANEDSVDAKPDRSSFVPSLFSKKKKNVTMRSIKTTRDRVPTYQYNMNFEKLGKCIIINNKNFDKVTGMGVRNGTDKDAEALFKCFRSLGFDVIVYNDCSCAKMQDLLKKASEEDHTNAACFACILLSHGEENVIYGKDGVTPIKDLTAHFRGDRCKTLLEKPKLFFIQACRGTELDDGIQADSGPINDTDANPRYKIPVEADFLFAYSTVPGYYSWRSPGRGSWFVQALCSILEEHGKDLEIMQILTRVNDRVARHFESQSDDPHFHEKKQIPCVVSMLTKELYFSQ

fibrillarin = biological target: T9, fibrillarin (UniProt P22087)
T9 sequence: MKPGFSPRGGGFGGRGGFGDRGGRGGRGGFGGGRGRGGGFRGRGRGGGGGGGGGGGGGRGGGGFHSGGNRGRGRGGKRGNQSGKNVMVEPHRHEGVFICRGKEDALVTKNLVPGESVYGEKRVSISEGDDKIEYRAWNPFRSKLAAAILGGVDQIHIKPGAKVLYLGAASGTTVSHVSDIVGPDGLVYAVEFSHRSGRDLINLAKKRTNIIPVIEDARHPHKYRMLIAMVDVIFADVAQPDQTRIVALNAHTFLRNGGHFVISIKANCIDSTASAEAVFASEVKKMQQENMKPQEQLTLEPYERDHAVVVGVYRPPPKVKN

[6] = system: nuclear mitotic apparatus protein
Sequence of nuclear mitotic apparatus protein (chain, as listed by the source): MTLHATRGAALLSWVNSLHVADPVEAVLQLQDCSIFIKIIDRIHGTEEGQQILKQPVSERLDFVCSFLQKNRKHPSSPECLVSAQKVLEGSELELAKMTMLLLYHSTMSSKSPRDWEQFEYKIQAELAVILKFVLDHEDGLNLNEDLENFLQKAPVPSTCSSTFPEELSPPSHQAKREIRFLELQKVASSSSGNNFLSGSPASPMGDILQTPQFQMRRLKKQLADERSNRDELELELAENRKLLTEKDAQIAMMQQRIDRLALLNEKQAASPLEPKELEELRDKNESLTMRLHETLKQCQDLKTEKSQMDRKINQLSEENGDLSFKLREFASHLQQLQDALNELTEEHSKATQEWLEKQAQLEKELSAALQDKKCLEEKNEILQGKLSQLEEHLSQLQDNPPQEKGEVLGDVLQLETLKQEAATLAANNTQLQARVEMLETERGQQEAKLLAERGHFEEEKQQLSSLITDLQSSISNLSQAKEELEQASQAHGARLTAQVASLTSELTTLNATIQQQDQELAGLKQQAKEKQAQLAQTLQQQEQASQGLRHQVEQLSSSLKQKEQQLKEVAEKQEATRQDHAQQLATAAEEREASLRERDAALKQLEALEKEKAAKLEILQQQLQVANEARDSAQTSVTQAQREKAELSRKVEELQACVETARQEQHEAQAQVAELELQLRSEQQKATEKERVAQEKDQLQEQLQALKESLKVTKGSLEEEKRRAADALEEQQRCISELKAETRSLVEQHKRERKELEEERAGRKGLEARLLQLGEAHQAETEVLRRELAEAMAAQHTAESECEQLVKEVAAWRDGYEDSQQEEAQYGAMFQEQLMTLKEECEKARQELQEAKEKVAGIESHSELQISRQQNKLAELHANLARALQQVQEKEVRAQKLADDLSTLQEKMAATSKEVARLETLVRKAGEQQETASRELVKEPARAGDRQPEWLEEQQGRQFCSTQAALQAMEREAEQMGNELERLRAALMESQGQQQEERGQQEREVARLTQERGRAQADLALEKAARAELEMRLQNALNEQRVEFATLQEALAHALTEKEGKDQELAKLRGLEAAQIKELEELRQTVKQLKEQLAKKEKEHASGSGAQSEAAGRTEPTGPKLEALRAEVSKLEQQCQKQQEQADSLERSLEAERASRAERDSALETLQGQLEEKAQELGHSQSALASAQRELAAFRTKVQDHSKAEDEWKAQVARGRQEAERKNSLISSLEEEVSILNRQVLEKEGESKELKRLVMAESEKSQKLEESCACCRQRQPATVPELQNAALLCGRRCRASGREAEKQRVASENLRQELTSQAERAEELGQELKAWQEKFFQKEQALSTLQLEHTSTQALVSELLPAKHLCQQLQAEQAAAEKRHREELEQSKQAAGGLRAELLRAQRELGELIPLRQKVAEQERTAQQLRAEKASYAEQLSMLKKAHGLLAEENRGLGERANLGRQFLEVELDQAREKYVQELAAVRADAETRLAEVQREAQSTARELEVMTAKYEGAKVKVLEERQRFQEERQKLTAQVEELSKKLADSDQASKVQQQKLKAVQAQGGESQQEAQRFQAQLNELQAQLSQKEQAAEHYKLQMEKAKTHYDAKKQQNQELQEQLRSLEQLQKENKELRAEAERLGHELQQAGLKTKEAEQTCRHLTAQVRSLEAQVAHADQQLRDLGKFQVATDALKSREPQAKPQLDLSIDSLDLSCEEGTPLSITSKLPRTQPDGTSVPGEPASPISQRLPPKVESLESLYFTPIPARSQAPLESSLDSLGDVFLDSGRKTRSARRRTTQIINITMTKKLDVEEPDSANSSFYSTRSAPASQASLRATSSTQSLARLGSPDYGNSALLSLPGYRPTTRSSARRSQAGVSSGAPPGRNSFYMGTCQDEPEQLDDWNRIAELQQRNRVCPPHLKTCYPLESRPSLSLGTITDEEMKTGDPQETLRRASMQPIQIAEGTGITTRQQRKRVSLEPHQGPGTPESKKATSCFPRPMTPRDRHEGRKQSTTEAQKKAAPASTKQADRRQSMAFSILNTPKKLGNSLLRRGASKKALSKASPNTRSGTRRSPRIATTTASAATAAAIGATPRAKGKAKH

[7] = system: poly(ADP-ribose) polymerase

Sequence of UniProt P49588 (P49588 whole entry): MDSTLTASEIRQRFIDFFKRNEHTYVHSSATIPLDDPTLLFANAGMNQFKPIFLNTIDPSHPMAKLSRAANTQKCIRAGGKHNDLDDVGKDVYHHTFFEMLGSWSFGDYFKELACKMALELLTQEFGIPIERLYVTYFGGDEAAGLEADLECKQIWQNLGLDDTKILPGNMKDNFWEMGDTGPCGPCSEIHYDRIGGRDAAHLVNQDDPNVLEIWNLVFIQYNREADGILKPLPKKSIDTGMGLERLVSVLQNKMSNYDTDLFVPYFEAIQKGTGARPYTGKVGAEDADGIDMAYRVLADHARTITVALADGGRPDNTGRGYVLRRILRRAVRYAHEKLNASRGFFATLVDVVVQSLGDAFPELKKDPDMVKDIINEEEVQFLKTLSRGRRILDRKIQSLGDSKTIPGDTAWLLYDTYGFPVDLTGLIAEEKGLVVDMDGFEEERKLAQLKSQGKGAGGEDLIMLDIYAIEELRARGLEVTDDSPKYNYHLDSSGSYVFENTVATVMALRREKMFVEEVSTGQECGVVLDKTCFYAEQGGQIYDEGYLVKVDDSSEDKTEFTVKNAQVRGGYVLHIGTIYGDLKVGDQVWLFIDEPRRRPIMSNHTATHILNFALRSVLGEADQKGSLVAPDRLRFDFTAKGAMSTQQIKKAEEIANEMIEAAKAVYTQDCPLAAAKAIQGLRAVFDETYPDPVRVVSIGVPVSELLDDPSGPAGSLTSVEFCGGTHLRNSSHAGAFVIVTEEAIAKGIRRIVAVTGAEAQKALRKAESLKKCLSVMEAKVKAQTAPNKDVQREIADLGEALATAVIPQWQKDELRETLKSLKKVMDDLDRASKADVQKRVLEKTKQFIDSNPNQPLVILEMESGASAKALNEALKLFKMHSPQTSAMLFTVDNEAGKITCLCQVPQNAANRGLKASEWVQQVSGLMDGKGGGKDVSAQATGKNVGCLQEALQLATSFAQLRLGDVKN

## granzyme B (sequence left out)
[1]
  cleavage: None of 18 different human non-autoantigens tested was cleaved by granzyme B
[2]
  kcat/Km: 18000 M⁻¹ s⁻¹
CENP B
  kcat/Km: 5900 M⁻¹ s⁻¹
[3]
  kcat/Km: 23000 M⁻¹ s⁻¹
[4]
  kcat/Km: 78000 M⁻¹ s⁻¹
Ki-67
  kcat/Km: 8100 M⁻¹ s⁻¹
La
  kcat/Km: 61000 M⁻¹ s⁻¹
Mi-2
  kcat/Km: 85000 M⁻¹ s⁻¹
PMS1
  kcat/Km: 69000 M⁻¹ s⁻¹
PMS2
  kcat/Km: 14000 M⁻¹ s⁻¹
PmScl
  kcat/Km: 7500 M⁻¹ s⁻¹
[5]
  kcat/Km: 13000 M⁻¹ s⁻¹
Topoisomerase I
  kcat/Km: 1.6e+06 M⁻¹ s⁻¹
caspase-3 precursor
  kcat/Km: 36000 M⁻¹ s⁻¹ and 23000 M⁻¹ s⁻¹
caspase-7 precursor
  kcat/Km: 180000 M⁻¹ s⁻¹
fibrillarin
  kcat/Km: 33000 M⁻¹ s⁻¹
[6]
  kcat/Km: 540000 M⁻¹ s⁻¹
[7]
  kcat/Km: 23000 M⁻¹ s⁻¹

“And” between values parts separate entries of the source, which are not always exact repeats. Equal values may be shown once.
